Measurements taken from US20070254863A1 (priority 2006, published 2007).
Where two headings read alike, the source gives them in different places.

Molecular target: human cannabinoid CB1 receptor (Homo sapiens, UniProt P21554)
Assay: biochemical
Assay type: binding
[1] = cloned human CB1 receptor expressed in CHO cells, read-out: Affinity to CB1 (converted)

Sequence of UniProt P21554 (P21554 whole entry): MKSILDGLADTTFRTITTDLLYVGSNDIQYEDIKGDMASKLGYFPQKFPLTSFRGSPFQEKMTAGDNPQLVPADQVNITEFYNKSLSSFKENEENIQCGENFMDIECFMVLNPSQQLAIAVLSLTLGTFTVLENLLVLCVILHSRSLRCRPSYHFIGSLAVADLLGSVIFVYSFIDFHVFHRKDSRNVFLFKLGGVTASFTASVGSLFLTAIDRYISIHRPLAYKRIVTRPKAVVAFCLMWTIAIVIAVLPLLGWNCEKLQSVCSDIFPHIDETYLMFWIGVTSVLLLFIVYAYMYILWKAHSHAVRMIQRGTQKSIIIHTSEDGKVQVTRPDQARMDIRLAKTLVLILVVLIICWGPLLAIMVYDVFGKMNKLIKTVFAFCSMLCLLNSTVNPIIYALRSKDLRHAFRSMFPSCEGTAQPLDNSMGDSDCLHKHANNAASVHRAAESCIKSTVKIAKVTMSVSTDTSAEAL

| SMILES | Ki [1] | Ki (Affinity to CB1) |
| --- | --- | --- |
| CNC(=NS(=O)(=O)c1ccc(Cl)cc1)N1CC(c2cccnc2)C(c2ccc(Cl)cc2)=N1 (stereo not drawn) | 79.4 nM | – |
| Cn1c(C(=O)NC2CCCCC2)nc(-c2ccc(Cl)cc2Cl)c1-c1ccc(Cl)cc1 | 79.4 nM | – |
| O=S(=O)(N=C(NCC1CCNCC1)N1CC(c2ccccc2)C(c2ccc(Cl)cc2)=N1)c1ccc(Cl)cc1 (stereo not drawn) | 2.51 nM | – |
| O=S(=O)(N=C(NCC1CC1)N1CC(c2ccccc2)C(c2ccc(Cl)cc2)=N1)N1CCOCC1 (stereo not drawn) | 3.16 nM | – |
| N/C(=N\S(=O)(=O)c1ccc(Cl)cc1)N1C[C@@H](c2ccccc2)C(c2ccc(Cl)cc2)=N1 (stereo in doubt) [N-{Amino-[3-(4-chloro-phenyl)-4-phenyl-4,5-dihydro-pyrazol-1-yl]-methylene}-4-chloro-benzenesulfonamide] | 3.98 nM | – |
| O=C(NN1CCCCC1)c1nc(-c2ccc(Cl)cc2Cl)n(-c2ccc(Br)cc2)c1Cl [1-(4-Bromo-phenyl)-5-chloro-2-(2,4-dichloro-phenyl)-1H-imidazole-4-carboxylic acid piperidin-1-ylamide] | 2.51 nM | – |
| O=C(NN1CCCCC1)c1cn(-c2ccc(Cl)cc2)c(-c2ccc(Cl)cc2Cl)n1 [1-(4-Chloro-phenyl)-2-(2,4-dichloro-phenyl)-1H-imidazole-4-carboxylic acid piperidin-1-ylamide] | – | 7.94 nM |
| O=C(NN1CCCCC1)c1nc(-c2ccc(Cl)cc2Cl)n(-c2ccc(Cl)cc2)c1CC(F)(F)F [1-(4-Chloro-phenyl)-2-(2,4-dichloro-phenyl)-5-(2,2,2-trifluoro-ethyl)-1H-imidazole-4-carboxylic acid piperidin-1-ylamide] | 31.6 nM | – |
| CCc1c(C(=O)NN2CCCCC2)nc(-c2ccc(Cl)cc2Cl)n1-c1ccc(Cl)cc1 [1-(4-Chloro-phenyl)-2-(2,4-dichloro-phenyl)-5-ethyl-1H-imidazol-4-carboxylic acid piperidin-1-ylamide] | 2 nM | – |
| CCSc1c(C(=O)NN2CCCCC2)nc(-c2ccc(Cl)cc2Cl)n1-c1ccc(Cl)cc1 [1-(4-Chloro-phenyl)-2-(2,4-dichloro-phenyl)-5-ethylsulfanyl-1H-imidazole-4-carboxylic acid piperidin-1-ylamide] | 39.8 nM | – |
| O=C(NN1CCCCC1)c1nc(-c2ccc(Cl)cc2Cl)n(-c2ccc(Cl)cc2)c1CO [1-(4-Chloro-phenyl)-2-(2,4-dichloro-phenyl)-5-hydroxymethyl-1H-imidazole-4-carboxylic acid piperidin-1-ylamide] | 25.1 nM | – |
| C[S+]([O-])c1c(C(=O)NN2CCCCC2)nc(-c2ccc(Cl)cc2Cl)n1-c1ccc(Cl)cc1 (stereo not drawn) [1-(4-Chloro-phenyl)-2-(2,4-dichloro-phenyl)-5-methanesulfinyl-1H-imidazole-4-carboxylic acid piperidin-1-ylamide] | 39.8 nM | – |
| Cc1c(C(=O)NC2CCC(O)CC2)nc(-c2ccc(Cl)cc2Cl)n1-c1ccc(Cl)cc1 (stereo not drawn) [1-(4-Chloro-phenyl)-2-(2,4-dichloro-phenyl)-5-methyl-1H-imidazole-4-carboxylic acid (4-hydroxy-cyclo-hexyl)-amide] | 251 nM | – |
| CCCCCc1nc(-c2ccc(Cl)cc2Cl)n(-c2ccc(Cl)cc2)c1C [1-(4-Chloro-phenyl)-2-(2,4-dichloro-phenyl)-5-methyl-4-pentyl-1H-imidazole] | 100 nM | – |
| CSc1c(C(=O)NN2CCCCC2)nc(-c2ccc(Cl)cc2Cl)n1-c1ccc(Cl)cc1 [1-(4-Chloro-phenyl)-2-(2,4-dichloro-phenyl)-5-methylsulfanyl-1H-imidazole-4-carboxylic acid piperidin-1-ylamide] | 10 nM | – |
| O=C(NN1CCCCC1)c1nc(-c2ccc(Cl)cc2Cl)n(-c2ccc(Cl)cc2)c1CN1CCCC1 [1-(4-Chloro-phenyl)-2-(2,4-dichloro-phenyl)-5-pyrrolidin-1-ylmethyl-1H-imidazole-4-carboxylic acid piperidin-1-ylamide] | 501 nM | – |
| CCc1c(C(=O)NN2CCCCC2)nc(-c2ccccc2Cl)n1-c1ccc(Cl)cc1 [1-(4-Chloro-phenyl)-2-(2-chloro-phenyl)-5-ethyl-1H-imidazole-4-carboxylic acid piperidin-1-ylamide, reference compound] | 12.6 nM | – |
| O=C(NN1CCCCC1)c1nc(-c2ccc(Cl)cc2Cl)n(-c2ccc(Cl)cc2)n1 [1-(4-Chloro-phenyl)-5-(2,4-dichloro-phenyl)-1H-[1,2,4]triazole-3-carboxylic acid piperidin-1-yl-amide] | 316 nM | – |
| N=C(N)C1=NN(c2ccc(Cl)cc2)C(c2ccccc2)C1 (stereo not drawn) [1-(4-Chloro-phenyl)-5-phenyl-4,5-dihydro-1H-pyrazole-3-carboxamidine] | 631 nM | – |
| O=C(NN1CCCCC1)C1=NN(c2ccc(Cl)cc2)C(c2ccccc2)C1 (stereo not drawn) [1-(4-Chloro-phenyl)-5-phenyl-4,5-dihydro-1H-pyrazole-3-carboxylic acid piperidin-1-ylamide] | 63.1 nM | – |
| CS(=O)(=O)C(=C1CN(C(c2ccc(Cl)cc2)c2ccc(Cl)cc2)C1)c1cc(F)cc(F)c1 [1-[Bis-(4-chloro-phenyl)-methyl]-3-[(3,5-difluoro-phenyl)-methanesulfonyl-methylene]-azetidine, reference compound] | 6.31 nM | – |
| NC(=O)C1CCN(C(=NS(=O)(=O)c2ccc(Cl)cc2)N2CC(c3ccccc3)C(c3ccc(Cl)cc3)=N2)CC1 (stereo not drawn) [1-{(4-Chloro-benzene-sulfonylimino)-[3-(4-chloro-phenyl)-4-phenyl-4,5-dihydro-pyrazol-1-yl]-methyl}-piperidine-4-carboxylic acid amide] | 6.31 nM | – |
| O=C(NN1CCCCC1)c1cn(-c2ccc(C(F)(F)F)cc2)c(-c2ccc(Cl)cc2Cl)n1 [2-(2,4-Dichloro-phenyl)-1-(4-trifluoromethyl-phenyl)-1H-imidazole-4-carboxylic acid piperidin-1-ylamide] | 25.1 nM | – |
| Cc1c(C(=O)NN2CCCCC2)nc(-c2ccc(Cl)cc2Cl)n1-c1ccccn1 [2-(2,4-Dichloro-phenyl)-5-methyl-1-pyridin-2-yl-1H-imidazole-4-carboxylic acid piperidin-1-ylamide] | 50.1 nM | – |
| O=C(NN1CCCCC1)c1cn(-c2ccc(C(F)(F)F)cc2)c(-c2ccccc2Cl)n1 [2-(2-Chloro-phenyl)-1-(4-trifluoromethyl-phenyl)-1H-imidazole-4-carboxylic acid piperidin-1-ylamide] | 100 nM | – |
| CCCCC(C)(O)c1nc(-c2ccc(Cl)cc2Cl)n(-c2ccc(Cl)cc2)c1C (stereo not drawn) [2-[1-(4-Chloro-phenyl)-2-(2,4-dichloro-phenyl)-5-methyl-1H-imidazol-4-yl]-hexan-2-ol] | 251 nM | – |
| CCC1CN=C(N2CC(c3ccccc3)C(c3ccc(Cl)cc3)=N2)O1 (stereo not drawn) [2-[3-(4-Chloro-phenyl)-4-phenyl-4,5-dihydro-pyrazol-1-yl]-5-ethyl-4,5-dihydro-oxazole] | 631 nM | – |
| Cn1c(C(=O)NC2CCCCC2)nc(-c2ccc(Cl)cc2)c1-c1ccc(Cl)cc1Cl [4-(4-Chloro-phenyl)-5-(2,4-dichloro-phenyl)-1-methyl-1H-imidazole-2-carboxylic acid cyclohexylamide] | – | 63.1 nM |
| O=C(NS(=O)(=O)c1ccc(Cl)cc1)N1CC(c2ccccc2)C(c2ccc(Cl)cc2)=N1 (stereo not drawn) [4-Chloro-N-[3-(4-chloro-phenyl)-4-phenyl-4,5-dihydro-pyrazole-1-carbonyl]-benzenesulfonamide] | 316 nM | – |
| N#CCCNC(=NS(=O)(=O)c1ccc(Cl)cc1)N1CC(c2ccccc2)C(c2ccc(Cl)cc2)=N1 (stereo not drawn) [4-Chloro-N-[[3-(4-chloro-phenyl)-4-phenyl-4,5-dihydro-pyrazol-1-yl]-(2-cyano-ethylamino)-methylene]-benzene sulfonamide] | 12.6 nM | – |
